Results reported in US10590178B2 (priority 2014, dated 2020).

Columns and labels:
[1] = system: C. albicans cells (strain 3153A); format: in vivo, Candida albicans; conditions: lethal dose C. albicans 3153A; compared to controls and other groups
Method: Fba-8MAP and Met6-8MAP peptides were administered as a mixture using alum (aluminum hydroxide gel, Sigma) as adjuvant. Mice were immunized by s.c. injection with 100 μl of 2.5 μg of either Fba-8MAP conjugate or Met6-8MAP conjugate with 50 μg alum on days 1, 21 and 42. Sera from groups of mice given DPBS buffer only, or adjuvant only were used as negative controls.
A two-tailed t test was used.
The Fba-8MAP conjugate or the Met6-8MAP conjugate was administered as a mixture with an alum adjuvant (aluminum hydroxide gel, Sigma). Mice were immunized by subcutaneous (s.c.) injection of 0.1 ml of DPBS buffer containing either 2.5 μg of Fba-8MAP or 2.5 μg of Met6-8MAP, mixed with 50 μg alum, on days 1, 21 and 42. Negative control groups of mice were given the same volume of DPBS buffer, or the same volume of DPBS buffer with alum adjuvant. Groups immunized with peptide-pulsed DCs were used as positive controls.

[2] = system: C. albicans (strain SC5314); experiment: Peptide-pulsed DC vaccination of mice, then lethal i.v. C. albicans challenge (survival, kidney CFUs)
Method: Survival times were evaluated statistically by Kaplan-Meier estimator (GraphPad Prism, version 4). All analyses included five mice per group (n=5). A two-tailed t test was used.

Sequence | kidney CFU levels [1] | protection / survival time compared to control mice ([2]; lethal dose C. albicans SC5314 i.v., listed as Met6 peptide) | fungal CFUs in kidneys compared to control animals ([2]; C. albicans SC5314)
PRIGGQRELKKITE (Met6 peptide) | lowest kidney CFU levels | significantly prolonged survival time | –
YGKDVKDLFDYAQE (Fba peptide) | lowest kidney CFU levels | – | greatly reduced or even non-detectable
